Experimental data as given in paper PMC4336329 (PLoS ONE, 2015).
The whole screen tested about 310,000 compounds, of which about 2,200 (0.71%) showed an effect of 50% or more. Effects have a minus sign here. The list shows a part of the results.

Each compound was assayed against human ether-à-go-go-related gene (hERG) potassium channel (human, UniProt Q12809) (assay: primary screen, population patch clamp on CHO cells stably expressing hERG).
Chain of human ether-à-go-go-related gene (hERG) potassium channel (Q12809 whole entry, looked up): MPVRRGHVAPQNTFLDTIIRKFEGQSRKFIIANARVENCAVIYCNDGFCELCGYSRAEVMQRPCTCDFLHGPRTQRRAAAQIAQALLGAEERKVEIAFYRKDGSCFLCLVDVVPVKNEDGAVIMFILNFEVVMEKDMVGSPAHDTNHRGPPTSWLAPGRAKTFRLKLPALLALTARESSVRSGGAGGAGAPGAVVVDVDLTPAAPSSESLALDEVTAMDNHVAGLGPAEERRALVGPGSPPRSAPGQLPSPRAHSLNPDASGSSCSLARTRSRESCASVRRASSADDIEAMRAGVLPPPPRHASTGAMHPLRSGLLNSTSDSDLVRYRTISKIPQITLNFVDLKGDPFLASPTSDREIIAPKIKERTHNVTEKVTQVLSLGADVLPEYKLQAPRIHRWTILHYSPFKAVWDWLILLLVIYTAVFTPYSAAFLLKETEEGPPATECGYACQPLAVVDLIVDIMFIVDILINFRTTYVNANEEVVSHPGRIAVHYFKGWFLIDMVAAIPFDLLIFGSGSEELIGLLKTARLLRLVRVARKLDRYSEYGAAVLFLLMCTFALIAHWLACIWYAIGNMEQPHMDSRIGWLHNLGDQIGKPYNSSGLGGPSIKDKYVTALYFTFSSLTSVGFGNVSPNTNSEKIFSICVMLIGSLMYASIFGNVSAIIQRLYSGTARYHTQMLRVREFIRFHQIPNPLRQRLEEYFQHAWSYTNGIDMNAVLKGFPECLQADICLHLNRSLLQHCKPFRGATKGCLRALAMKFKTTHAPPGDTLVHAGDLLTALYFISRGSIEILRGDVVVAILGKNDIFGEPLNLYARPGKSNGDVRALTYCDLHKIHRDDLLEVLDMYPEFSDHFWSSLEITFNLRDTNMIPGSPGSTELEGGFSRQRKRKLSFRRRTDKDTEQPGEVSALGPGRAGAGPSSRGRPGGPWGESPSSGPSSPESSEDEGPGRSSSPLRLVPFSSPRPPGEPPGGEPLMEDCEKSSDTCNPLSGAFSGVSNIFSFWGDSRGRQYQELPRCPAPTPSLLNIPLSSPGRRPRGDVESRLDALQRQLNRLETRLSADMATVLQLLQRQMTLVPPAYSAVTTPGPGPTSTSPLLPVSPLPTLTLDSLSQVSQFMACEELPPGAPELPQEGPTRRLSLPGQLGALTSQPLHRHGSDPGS

SMILES | hERG current change (%, negative = inhibition) at 1uM [%]
Cc1oc(-c2ccc(F)cc2F)nc1CN1C[C@@H]2C[C@@H](C1)c1cccc(=O)n1C2 | -21.2
CCc1ccc(S(=O)(=O)NCc2ccc(N3CCN(C)CC3)cc2)cc1 | 9.16
O=C(CSc1nnc2scc(-c3ccccc3)n12)NCc1ccc2c(c1)OCO2 | 3.88
Cc1cc(OCC(=O)NCCCN2CCCC2=O)c2c(C)c(C)c(=O)oc2c1 | -4.41
CC(C)(C)c1csc(NC(=O)c2ccc(Br)o2)n1 | 7.46
COc1ccccc1CNC(=O)c1cccc(-c2ccc(C)c3ccccc23)n1 | 15.6
Cc1cc2c(C)nc3ccccc3c2o1 | 11.9
Cc1cc(C)c(NC(=O)CN2C(=O)NC3(CCCCC3)C2=O)c(Cl)c1 | 0.0119
CCOc1ccccc1C1CC(c2ccccc2)Nc2nc(N)nn21.Cl (stereo not shown) | -2.71
CCOCC(=O)Nc1nnc(COCC)s1 | 7.17
CCCC1C(C#N)=C(N)Oc2c1c(=O)oc1ccccc21 (stereo not shown) | 9.9
CS(=O)(=O)Nc1cccc(C(=O)OCCCOc2ccc(F)cc2)c1 | 1.44
COc1ccc(-c2nnn(CC(=O)N(CCCN3CCOCC3)C(C(=O)NC3CCCC3)c3ccc(C)o3)n2)cc1 (stereo not shown) | 8.35
N=C1c2ccccc2CN1NC(=O)c1ccc(Br)o1 | 15.5
O=C(CCl)Nc1cn(-c2ccccc2)nc1-c1ccccc1 | -0.41
CCc1cc2c(=O)c(-c3nc4ccccc4n3C)coc2c(CN2CCCC(C)C2)c1O (stereo not shown) | 10.6
CCCN1C/C(=C/c2ccc3c(c2)OCO3)C(=O)/C(=C/c2ccc3c(c2)OCO3)C1 | 5.93
Brc1ccc(Oc2ncc(CN3CCN(c4ccccc4)CC3)s2)cc1 | 11.1
Cc1ccccc1NC(=O)C1CCCN(S(=O)(=O)c2cccc3cccnc23)C1 (stereo not shown) | 3.89
O=C(c1cc(S(=O)(=O)N2CCOCC2)ccc1Cl)N1CCC(Cc2ccccc2)CC1 | 3.01
O=C(CN1CCN(c2ncc(C(F)(F)F)cc2Cl)CC1)NC(=O)NCc1ccccc1 | 10.7
COc1ccc(-c2nnc(-c3ccc(C)cc3)o2)cc1 | 12.9

SMILES | hERG current change (%, negative = inhibition) at 1uM [%]
O=C(O)CCC(=O)Nc1ccc(S(=O)(=O)c2ccc(NC(=O)CCC(=O)O)cc2)cc1 | 6.9
COc1ccc(C(=O)NCc2ccco2)cc1S(=O)(=O)NC1CC1 | -3.11
CCC(=O)N1CCN(c2ccc(NC(=O)c3ccc(C#N)cc3F)cc2Cl)CC1 | 3.09
CCCn1c(SCc2ccccc2)nc2c1c(=O)[nH]c(=O)n2C | 3.44
CCOC(=O)c1c[nH]n2c(=O)cc(C)nc12 | 13.5
C[C@H](NC(=O)c1nc[nH]c1C(=O)N[C@@H](CCCCNC(=O)OC(C)(C)C)C(=O)OC(C)(C)C)C(=O)OC(C)(C)C | 3.21
COc1ccc(-c2oc(/N=C/N3CCOCC3)c(C#N)c2-c2ccc(OC)cc2)cc1 | 15.4
CCOc1ccc(CNC(=O)Cn2nc(C)n3nc(-c4ccccc4)cc3c2=O)cc1 | 0.874
COc1ccc(C(=O)N=c2sc3c(C)ccc(OC)c3n2C)cc1OC | 6.8
Cc1ccc(-c2nnc3c(C(F)(F)F)nc4ccccc4n23)cc1 | 8.9
O=C(c1ccccc1NS(=O)(=O)c1ccc(F)cc1)N1CCc2ccccc21 | 12.2
CCN(CC(=O)NC(C)(C)C)Cc1nc2c(Br)cc(Br)cc2c(=O)[nH]1 | 15
COc1cc(CNC(=O)CCCCCCC(C)C)ccc1O | 2.39
Cc1cc(Br)c(NC(=O)c2c(-c3c(Cl)cccc3Cl)noc2C)c(Br)c1 | 10.8
CCOc1ccc(N(CC(=O)Nc2cccc(C)c2)S(C)(=O)=O)cc1 | 10.2
CN(C)c1ccc(N2C(=O)CC(Nc3ccc(N4CCOCC4)cc3)C2=O)cc1 (stereo not shown) | 0.153
Cl.OCCNCCNCc1ccc(-c2ccccc2)cc1 | 13.1
O=C(COC(=O)CN1C(=O)NC2(CCCC2)C1=O)Nc1ccc(C(F)(F)F)cc1[N+](=O)[O-] | 4.09
N#Cc1ccccc1COC(=O)CCC(=O)c1cccs1 | 5.96
CN(C)c1nc(C(=O)OCCO)nc(N(C)C)n1 | 4.11
COc1ccc(C)cc1NC(=O)Nc1cnccn1 | 4.47
NC(=O)c1cc2ccccc2o/c1=N\NC(=O)c1ccccc1O | 6.97

SMILES | hERG current change (%, negative = inhibition) at 1uM [%]
O=c1cc(NCCCO)c2ccccc2o1 | 7.93
CCN(CC)c1ccc(/C=N/NC(=O)c2ccco2)c(O)c1 | 9.17
CCC(=O)Oc1ccc(C(=O)Nc2c[nH]c(=O)[nH]c2=O)cc1 | 17
COC(=O)c1cc2oc3ccccc3c2n1CC(=O)N1CCCc2ccccc21 | 15
O=S(=O)(c1cnc[nH]1)N1CCN(c2ccc(F)cc2)CC1 | 2.41
CCn1c2ccccc2c2cc(/C=N/NC(=O)c3cccc(C)c3)ccc21 | 11.5
C(=N\NCc1ccccc1)/c1ccc2ncccc2c1 | 11.2
CCN=C1SC(CC(=O)NCCc2ccc(OC)c(OC)c2)C(=O)N1CC (stereo not shown) | 9.27
Cc1ccccc1-n1cc(-c2ccc(Br)cc2)nc1SCC(N)=O | 10.3
Cc1cccc(OCCC(=O)Nc2c(C)n(C)n(-c3ccccc3)c2=O)c1 | 10.8
Cc1ccc(CN2CCN(Cc3ccccc3C(F)(F)F)CC2)cc1.O=C(O)C(=O)O | 13.5
CCC1CCCCN1Cc1nc2ccccc2c(=O)n1CC(C)=O (stereo not shown) | 6.14
COc1ccc(N(CC(=O)N/N=C/c2cccc(OC)c2OC)S(=O)(=O)c2ccccc2)cc1 | 12.7
CC(C)CC(NS(=O)(=O)c1ccccc1S(=O)(=O)NC(CC(C)C)C(=O)O)C(=O)O (stereo not shown) | 10.8
Cn1cnc(S(=O)(=O)N2CCN(C(c3ccccc3)c3ccccc3)CC2)c1 | 9.56
O=C(c1cnn2c(C(F)(F)F)cc(-c3ccccc3)nc12)N1CCC2(CC1)OCCO2 | 2.64
O=C(NCc1ccco1)c1ccc2c(c1)CCO2 | 13.8
O=C(CC1(O)C(=O)N(Cc2ccccc2)c2ccccc21)c1ccc2c(c1)OCO2 (stereo not shown) | 15.5
O=C1NC(=O)C(c2ccccc2)(c2ccccc2)N1 | 11.5
Cc1ccc(C)c(NC(=O)Cc2nc(CNCC(C)C)cs2)c1 | 9.18
COc1ccc(NC(=O)c2ccccc2SC)cc1 | 16.3
CCOc1ccc(OCCCCn2ccnc2)cc1 | -1.71

SMILES | hERG current change (%, negative = inhibition) at 1uM [%]
C=CCOc1cccc(CNc2cccc(C(=O)O)c2)c1 | 25.5
Cc1cc2nc(C(F)(F)F)[nH]c(=O)n2n1 | 14.6
CCOc1ccc(CNc2ncc(-c3ccccc3)n2C)cc1 | -3.02
CC(=O)Nc1ccc(N2CCOCC2)c([N+](=O)[O-])c1 | 3.53
CCCNC(=O)N1[C@H]2CC[C@@H]1C(C(=O)OC)=C(c1cc3ccccc3o1)C2 | 10.6
CSCCC(NS(=O)(=O)c1ccc2c(c1)oc(=O)n2C)C(=O)NC1CCCCC1 (stereo not shown) | 13
Cc1onc(-c2ccccc2)c1C(=O)Nc1ccc(Cl)c(S(=O)(=O)N2CCOCC2)c1 | 4.31
CC1CCN(S(=O)(=O)c2ccc(NC(=S)NC(=O)c3ccc(Cl)cc3)cc2)CC1 | -2.42
COc1ccc(C2CC(c3ccc(OC)cc3)n3nc(NC(=O)c4cccs4)nc3N2)cc1 (stereo not shown) | -12.9
COc1cc(C(C(=O)NCC2CCCO2)N(C(=O)Cn2nnc3ccccc32)c2ccc(C(C)=O)cc2)ccc1O (stereo not shown) | 16.4
COc1ccc(-n2nc3c(N4CCC(C(=O)NCCc5ccco5)CC4)nnc(C)c3c2C)cc1 | 19.1
CCn1c(Cc2ccccc2)nnc1SC(C)C(=O)NC1CC1 (stereo not shown) | 3.04
COc1ccc(NC(=O)c2oc3cc(C)c(C)cc3c2C)c(OC)c1 | 11.9
CC1(C(=O)N2CCOCC2)CCCCC1 | 13.3
Oc1c(Br)cc(Br)cc1CNc1nccs1 | 12.6
Cn1c(=O)c2sccc2n2c(CCCC(=O)NCc3ccco3)nnc12 | 13.2
Cc1nc2ccc(S(=O)(=O)NCC(=O)NCc3ccc4c(c3)OCO4)cc2s1 | 0.628
COc1ccc(S(=O)(=O)N2CCOCC2)cc1NC(=O)Cc1c(F)cccc1Cl | 8.34
O=C(CCNC(=O)c1ccccc1Cl)N/N=C\c1ccc(O)cc1 | 3.24
Cc1ccc(Oc2ccc(Cl)cc2NC(=O)c2ccc(F)cc2F)cc1 | 7.82
Cc1ccc(NC(=O)/C=C/c2ccc([N+](=O)[O-])s2)c(C)c1 | 10.5
CCCCOc1ccc(/C=C/C(=O)Nc2ccc(C(N)=O)cc2)cc1 | 9.03
